# Measurements: PubChem BioAssay (NCATS)
# The shares of active, inactive and inconclusive entries below differ from those in the screen. For some of these results: No potency is given beside an inconclusive call; the fits are too rough. For some of these results: “Side channel” marks fits to a control or component signal instead of the main read-out. Activity calls are given as the source filed them. Unless noted, the call rests on the fitted dose curve; in most records, active means well fitted curve in the direction sought with a large enough effect; inconclusive means small, poorly fitted or top-dose-only effect, or another doubt; inactive means no such curve, though single readings can be large; an effect the other way counts as inactive or inconclusive.
# Columns and labels:
# [1] = Cell Viability - Jurkat (AID 426;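 active means dose-dependent loss of cell ATP signal giving a full or clear fitted curve, ranked by lower potency value; inconclusive means weak partial curve or response only at the top dose; inactive means no loss of viability signal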; further: potency means the concentration at half of the fitted maximal effect); conditions: qHTS
# Procedure, shortened: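 Seed 5000 Jurkat E6-1 cells/well; add compound; incubate 40 hr at 37 °C; add CellTiter-Glo; wait 20 min at room temperature; read luminescence. Fit concentration-response with Hill equation for AC50.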
# [2] = MultiTox-Fluor Cytotoxicity Assay - LYMP1-001 - Dead Cells (AID 946); conditions: LYMP1-001 lymphoblastoid cells, dead-cell protease fluorescence; cytotoxicity (dead cells): at 92.2 µM (top of the series);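 further: 0% = DMSO and 100% = tetraoctylammonium bromide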
# Procedure, shortened: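 LYMP1-001 lymphoblastoid cells (2500/well) treated 16 h at 37 C. Dead-cell protease cleavage of bis-AAF-R110 read at Ex/Em 485/520. Normalized to DMSO and 15 uM tetraoctylammonium bromide; AC50 from Hill fits.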
# [3] = Cell Viability - LYMP1-003 - Assay at 40 hr (AID 964); conditions: LYMP1-003 lymphoblastoid viability; series mostly up to 92.2 µM; further: on the % scale 0 is the no-effect control and ±100 the full control effect; nearly all actives have a fitted effect of over 60% in size
# Procedure, shortened: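 This qHTS cytotoxicity screen treats human lymphoblastoid cells (LYMP1-003) with compounds for 40 hr and quantifies cellular ATP via luciferase luminescence.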
# [4] = Cell Viability - LYMP2-021 (AID 974); conditions: LYMP2-021 lymphoblastoid cells viability; series mostly up to 92.2 µM;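 further: compound exposure lasts 24 hours at 37 °C; on the % scale 0 is the no-effect control and ±100 the full control effect; nearly all actives have a fitted effect of over 55% in size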
# Procedure, shortened: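 Concentration-response cytotoxicity in a human lymphoblastoid line: 24 hr treatment at 37 C in complete culture medium, tetraoctylammonium bromide as positive control, luminescent ATP quantitation as viability measure.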
# [5] = Cell Viability - LYMP2-025 (AID 976); conditions: LYMP2-025 lymphoblastoid cell viability; activity change, negative = cytotoxicity: at 92.2 µM (top of the series);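 further: cells exposed to compound for 24 h at 37 °C; plate controls were DMSO only for no effect and tetraoctylammonium bromide control for full effect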
# Procedure, shortened: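 In qHTS format, LYMP2-025 lymphoblastoid cells in complete culture medium received compound for 24 hr; ATP-based CellTiter-Glo signal gave viability, with AC50 derived by Hill equation.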
# [6] = Cell Viability - LYMP2-022 (AID 987); conditions: LYMP2-022 lymphoblastoid cell viability; series mostly up to 92.2 µM;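 further: 0% = DMSO alone and full effect = tetraoctylammonium bromide at 92 µM; nearly all actives have a fitted effect of over 55% in size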
# Procedure, shortened: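 Acute toxicity in a human lymphoblastoid line is scored as decreased intracellular ATP after 24 hr compound treatment at 37 C. ATP is measured by CellTiter-Glo luminescence; curves are fitted with the Hill equation to give AC50.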
# [7] = target: Peroxisome proliferator-activated receptor gamma (Homo sapiens) (UniProt P37231); test: qHTS assay for small molecule antagonists of peroxisome proliferator-activated receptor gamma signaling (AID 588537; active means well fitted inhibition curve with a large enough effect in the signal ratio, with a control signal flat, not every such curve was filed as active; inconclusive means small, poorly fitted or top-dose-only effect, or effect the other way, or a change in a side signal; the % refers to the signal ratio; further: potency means the concentration at half of the fitted maximal effect;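 further: reporter cells co-stimulated with 50 nM rosiglitazone agonist during compound treatment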; on activity, negative = inhibition: % of control where 0% means no effect); conditions: HEK293 PPARg-UAS-bla, beta-lactamase ratio, antagonist mode; activity, negative = inhibition: at 76.8 µM (top of the series)
# Procedure, shortened: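 Inhibitors of agonist-stimulated UAS-bla reporter activity were sought in HEK293 cells; rosiglitazone (50 nM) defined full signal and DMSO baseline. Curves fitted to Hill model gave IC50 and efficacy.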
# [8] = target: Thyroid hormone receptor beta (Homo sapiens) (UniProt P10828); test: qHTS assay for small molecule agonists of thyroid hormone receptor beta signaling (AID 588545; calls by dose curve; further: potency means the concentration at half of the fitted maximal effect;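 on activation: 0% = DMSO only and 100% = 10 nM T3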); conditions: TR-UAS-bla GripTite HEK 293, beta-lactamase ratio, agonist mode, 18 h; activation: at 76.7 µM, percent of T3 response, DMSO as zero
# Sequence of UniProt P10828 (P10828 whole entry, looked up): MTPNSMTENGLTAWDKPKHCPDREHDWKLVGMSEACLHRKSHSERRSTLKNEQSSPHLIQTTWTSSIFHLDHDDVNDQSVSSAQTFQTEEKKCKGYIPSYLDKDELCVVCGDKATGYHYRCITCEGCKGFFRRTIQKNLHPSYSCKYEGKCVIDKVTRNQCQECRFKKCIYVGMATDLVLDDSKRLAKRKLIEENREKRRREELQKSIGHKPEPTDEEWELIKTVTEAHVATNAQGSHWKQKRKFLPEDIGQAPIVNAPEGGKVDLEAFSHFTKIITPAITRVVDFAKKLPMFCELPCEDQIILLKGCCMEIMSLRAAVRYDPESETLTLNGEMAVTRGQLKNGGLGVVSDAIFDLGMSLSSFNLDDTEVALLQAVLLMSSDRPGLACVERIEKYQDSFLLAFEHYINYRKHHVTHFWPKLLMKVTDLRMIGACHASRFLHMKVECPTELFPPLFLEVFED
# Procedure, shortened: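 Compounds were tested as agonists in TR-UAS-bla-GripTite HEK 293 cells. After 18 hrs at 37 C, CCF4 substrate was added and fluorescence read after 2 hrs at room temperature.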
# [9] = qHTS assay to identify small molecules that stimulate interleukin-8 (IL-8) secretion (AID 651758; active means well fitted activation curve with a large enough effect in the signal ratio; inconclusive means small, poorly fitted or top-dose-only effect, or effect the other way, or a change in a side signal; the % refers to the signal ratio; further: 0% is about no effect); conditions: HTRF ratio (665/615); activation: at 92.2 µM (top of the series)
# Procedure, shortened: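 Secreted IL-8 measured by TR-FRET sandwich (cryptate and XL665 antibodies) from THP-1 cells exposed to compound overnight (16 hrs, 37 C).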
# [10] = Cell Viability - Hek293 (AID 427;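 active means compounds whose dose-response curve shows a full or clear partial loss of cell viability, called from curve shape rather than a numeric limit; inconclusive means weak partial curves or an effect only at the top dose; inactive means no dose-dependent loss of viability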;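 further: potency means the concentration at half of the fitted maximal effect; cells exposed to compound for 40 hours at 37 °C before reading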); conditions: qHTS
# Procedure, shortened: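 HEK293 cells in complete medium were exposed to compound for 40 hr at 37 °C, then cellular ATP was read by CellTiter-Glo luminescence. Data were normalized to DMSO (basal) and 100 uM tamoxifen (100% inhibition), and AC50 came from Hill fits.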
# [11] = Cell Viability - H-4-II-E (AID 543); conditions: H-4-II-E rat hepatoma viability; series mostly up to 92.2 µM; further: potency means the concentration at half of the fitted maximal effect; nearly all actives have a fitted effect of over 35% in size
# Procedure, shortened: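 Here, cytotoxicity is measured in the rat hepatoma line H-4-II-E as loss of intracellular ATP after 40 hr compound treatment, detected by luciferase luminescence.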
# [12] = Cellular Toxicity (caspase-3) Jurkat (AID 655); conditions: Jurkat caspase-3 activation, luminescence; caspase-3 activation: at 92.2 µM (top of the series), DMSO = 0%, tamoxifen = 100%;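 further: cells exposed to compound for 16 h at 37 °C before reading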
# Procedure, shortened: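 Jurkat cells (5000/well) in complete medium exposed 16 h at 37 C; caspase-3/7 activity read by Caspase-Glo luminescence after 20 min at room temperature. Normalized to DMSO and 100 uM tamoxifen; AC50 from Hill fits.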
# [13] = Cellular Toxicity (caspase-3) Mesangial (AID 660); conditions: mesangial cells, normalized: DMSO 0%, 100 µM tamoxifen 100%; at 91.7 µM (top of the series);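 further: cells exposed to compound for 16 h before the caspase read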
# Procedure, shortened: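 Concentration-response qHTS: compound-induced rise in caspase 3/7 luminescence in human mesangial cells after 16 h, normalized to DMSO and 100 uM tamoxifen controls.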
# [14] = Cell Viability - LYMP2-002 (AID 977); conditions: LYMP2-002 lymphoblastoid cell viability, qHTS; activity change, negative = cytotoxic: at 92.2 µM (top of the series);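 further: compound exposure lasted 24 h at 37 °C; plate controls were DMSO only for no effect and 92 µM tetraoctylammonium bromide for full effect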
# Procedure, shortened: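 Cytotoxicity is scored as concentration-dependent loss of cellular ATP in a human lymphoblastoid line after 24 hr compound treatment at 37 C. AC50 is obtained by modelling concentration-response data with the Hill equation.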
# [15] = Cell Viability - LYMP2-020 (AID 986); conditions: activity change, negative = viability loss: at 92.2 µM (top of the series);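 further: cells exposed to compound for 24 h at 37 °C; plate controls were DMSO only for no effect and tetraoctylammonium bromide at 92 µM for full effect; nearly all actives have a fitted effect of over 55% in size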
# Procedure, shortened: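 Acute cytotoxicity in a human lymphoblastoid line is scored as a concentration-dependent fall in cellular ATP after 24 hr at 37 C in complete medium. The positive control is tetraoctylammonium bromide, and potency is given as Hill-fit AC50.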
# [16] = target: Estrogen receptor (Homo sapiens) (UniProt P03372); test: qHTS assay for small molecule agonists of estrogen receptor alpha signaling (AID 588514; calls by dose curve;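 further: 0% = vehicle only and 100% = reference agonist; nearly all actives have a fitted effect of over 70% in size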); conditions: ER-alpha-UAS-bla HEK293, beta-lactamase ratio, 18 h; activation: at 76.8 µM (top of the series), percent of full estradiol response, vehicle zero
# Sequence of UniProt P03372 (P03372 whole entry, looked up): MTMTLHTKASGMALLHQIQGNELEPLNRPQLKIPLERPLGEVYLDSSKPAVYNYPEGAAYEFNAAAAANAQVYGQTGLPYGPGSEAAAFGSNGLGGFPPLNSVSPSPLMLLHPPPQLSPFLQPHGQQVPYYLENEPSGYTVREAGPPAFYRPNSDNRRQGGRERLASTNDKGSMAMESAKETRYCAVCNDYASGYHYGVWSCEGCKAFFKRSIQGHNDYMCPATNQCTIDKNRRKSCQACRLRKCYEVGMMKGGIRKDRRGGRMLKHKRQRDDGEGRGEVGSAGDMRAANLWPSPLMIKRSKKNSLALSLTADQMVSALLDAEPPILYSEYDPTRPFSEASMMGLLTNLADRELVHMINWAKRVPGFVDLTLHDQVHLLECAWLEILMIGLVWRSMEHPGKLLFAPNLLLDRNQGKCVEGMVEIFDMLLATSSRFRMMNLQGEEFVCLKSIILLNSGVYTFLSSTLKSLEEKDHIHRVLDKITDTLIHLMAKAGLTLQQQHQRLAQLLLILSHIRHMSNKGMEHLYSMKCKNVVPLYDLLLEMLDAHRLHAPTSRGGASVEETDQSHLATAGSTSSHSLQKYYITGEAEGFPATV
# Procedure, shortened: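 Reporter-gene assay. […] controls beta-lactamase in HEK 293 GripTite cells; after 18 hrs with compound, CCF4 substrate is added for 2 hrs and fluorescence is read.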
# [17] = target: Androgen receptor (Homo sapiens) (UniProt P10275); test: qHTS assay for small molecule antagonists of androgen receptor signaling (AID 588516; active means well fitted curve in the direction sought with a large enough effect in the signal ratio, with a control signal flat, not every such curve was filed as active; inconclusive means small, poorly fitted or top-dose-only effect, or effect the other way, or a change in a side signal; inactive means no such curve, though single readings can be large or run the other way; the % refers to the signal ratio; further: on the % scale 0 is the no-effect control and ±100 the full control effect); conditions: AR-UAS-bla HEK293, beta-lactamase ratio, antagonist mode, 16 h; activity change, negative = inhibition: at 76.8 µM (top of the series)
# Sequence of UniProt P10275 (P10275 whole entry, looked up): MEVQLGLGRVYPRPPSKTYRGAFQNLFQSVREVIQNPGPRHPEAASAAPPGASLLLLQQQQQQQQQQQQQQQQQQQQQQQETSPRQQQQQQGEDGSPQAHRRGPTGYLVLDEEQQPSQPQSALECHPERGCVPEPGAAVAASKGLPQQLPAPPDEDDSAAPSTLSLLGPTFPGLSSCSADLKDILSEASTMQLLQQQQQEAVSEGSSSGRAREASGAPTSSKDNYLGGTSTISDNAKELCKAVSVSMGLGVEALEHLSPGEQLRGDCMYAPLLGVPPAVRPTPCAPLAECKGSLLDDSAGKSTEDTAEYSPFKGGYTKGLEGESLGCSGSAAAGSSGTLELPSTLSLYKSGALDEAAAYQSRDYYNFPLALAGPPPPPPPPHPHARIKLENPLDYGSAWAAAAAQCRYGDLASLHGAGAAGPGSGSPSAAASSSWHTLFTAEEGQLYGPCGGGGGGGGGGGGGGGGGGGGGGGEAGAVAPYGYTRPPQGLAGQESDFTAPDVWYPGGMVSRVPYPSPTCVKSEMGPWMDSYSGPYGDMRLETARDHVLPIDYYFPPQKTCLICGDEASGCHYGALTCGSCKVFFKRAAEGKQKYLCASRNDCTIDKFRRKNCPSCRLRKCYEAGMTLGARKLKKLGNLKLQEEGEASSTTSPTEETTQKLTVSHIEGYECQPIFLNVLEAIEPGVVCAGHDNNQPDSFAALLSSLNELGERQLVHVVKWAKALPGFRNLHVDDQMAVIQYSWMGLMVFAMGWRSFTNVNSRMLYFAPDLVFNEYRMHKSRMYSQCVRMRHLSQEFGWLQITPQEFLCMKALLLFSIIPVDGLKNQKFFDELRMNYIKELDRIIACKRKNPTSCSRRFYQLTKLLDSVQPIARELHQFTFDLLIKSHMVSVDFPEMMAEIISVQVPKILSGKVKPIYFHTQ
# Procedure, shortened: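 Cells were plated and incubated 5 h, compounds added in titration, then R1881 (10 nM final) as agonist. After 16 h at 37 C, CCF4 substrate was loaded for 2 h at room temperature and fluorescence measured.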
# [18] = target: Bile acid receptor (Homo sapiens) (UniProt Q96RI1); test: qHTS assay for small molecule antagonists of farnesoid X receptor signaling (AID 588526; calls by dose curve; further: on the % scale 0 is the no-effect control and ±100 the full control effect); conditions: HEK293T FXR-UAS-bla, beta-lactamase ratio, antagonist mode; activity change, negative = inhibition: at 76.7 µM (top of the series)
# Procedure, shortened: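 Beta-lactamase reporter antagonist mode: HEK293T FXR-UAS-bla cells, titrated compound, CDCA stimulation, 16 h 37 C, CCF4 dye 2 h RT. Data normalized to CDCA 50 uM and DMSO; Hill-fit IC50.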
# [19] = target: Peroxisome proliferator-activated receptor gamma (Homo sapiens) (UniProt P37231); test: qHTS assay for small molecule agonists of peroxisome proliferator-activated receptor gamma signaling (AID 588536; active means well fitted curve in the direction sought with a large enough effect in the signal ratio, with a control signal flat, not every such curve was filed as active; inconclusive means small, poorly fitted or top-dose-only effect, or effect the other way, or a change in a side signal; inactive means no such curve, though single readings can be large or run the other way; the % refers to the signal ratio;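 further: 0% = DMSO basal wells and 100% = rosiglitazone at 2 µM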); conditions: HEK293 PPARg-UAS-bla, beta-lactamase ratio, 16 h; activation: at 76.7 µM (top of the series), percent of rosiglitazone response, DMSO as zero
# Procedure, shortened: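 GeneBLAzer PPAR-gamma-UAS-bla HEK293 cells in 1% charcoal/dextran-treated FBS medium were treated 16 h at 37 C with compounds. Beta-lactamase activity was read by CCF4 ratio (460/530 nm). Response was normalized to 2 uM rosiglitazone (100%) and DMSO, then Hill-fitted for EC50 and efficacy.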
# [20] = target: Thyroid hormone receptor beta (Homo sapiens) (UniProt P10828); test: qHTS assay for small molecule antagonists of thyroid hormone receptor beta signaling (AID 588547; active means well fitted inhibition curve with a large enough effect in the signal ratio, with a control signal flat, not every such curve was filed as active; inconclusive means small, poorly fitted or top-dose-only effect, or effect the other way, or a change in a side signal; the % refers to the signal ratio;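 further: cells stimulated with 0.4 nM T3 agonist during compound exposure; on the % scale 0 is the no-effect control and ±100 the full control effect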); conditions: TR-UAS-bla HEK293, beta-lactamase ratio, antagonist mode, 18 h
# Procedure, shortened: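 Inhibition of T3-driven (0.4nM final) beta-lactamase reporter activity was measured over 0.59 nM to 92 uM compound after 18 h at 37 C. The cells were GripTite HEK293 TR-UAS-bla in charcoal/dextran-stripped serum, with CCF4 ratio read-out and IC50 from Hill fits.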
# [21] = qHTS assay for small molecule agonists of the antioxidant response element (ARE) signaling pathway (AID 651741; active means well fitted activation curve with a large enough effect in the signal ratio; inconclusive means small, poorly fitted or top-dose-only effect, or effect the other way, or a change in a side signal; the % refers to the signal ratio; further: % of control where 0% means no effect); conditions: HepG2 ARE-bla reporter, beta-lactamase FRET ratio, 16 h; activation: at 96 µM (top of the series) unless noted
# Procedure, shortened: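 Seeding 2,000 ARE-bla HepG2 cells per well preceded a 5 h incubation at 37 C/5% CO2 and a 16 h compound exposure at 37 C. Beta-lactamase reporter activity was then quantified by fluorescence after 2 h with LiveBLAzer B/G FRET substrate.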
# [22] = qHTS assay for small molecule disruptors of the mitochondrial membrane potential - 5 hr assay (AID 651755; calls by dose curve; further: on the % scale 0 is the no-effect control and ±100 the full control effect; nearly all actives have a fitted effect of over 40% in size); conditions: JC-1-type ratio dye; ratio change, negative = disruption: at 92.2 µM (top of the series)
# Procedure, shortened: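 HepG2, 2,000 cells/well, overnight attach; cpd or DMSO 5 hr, 37C/5% CO2; Mito-MPS 30 min 37C; fluor 490/535 + 540/590 nm.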
# [23] = target: Tumor necrosis factor (Homo sapiens) (UniProt P01375); test: qHTS assay to identify small molecules that stimulate Tumor Necrosis Factor-alpha (TNF-alpha) secretion (AID 651757; active means well fitted curve in the direction sought with a large enough effect in the signal ratio; inconclusive means small, poorly fitted or top-dose-only effect, or a change in a side signal; inactive means no such curve, though single readings can be large or run the other way; the % refers to the signal ratio; further: 0% is about no effect); conditions: Human cells, HTRF 665/615 ratio; activation (TNF-alpha secretion): at 92.2 µM (top of the series)
# Sequence of UniProt P01375 (P01375 whole entry, looked up): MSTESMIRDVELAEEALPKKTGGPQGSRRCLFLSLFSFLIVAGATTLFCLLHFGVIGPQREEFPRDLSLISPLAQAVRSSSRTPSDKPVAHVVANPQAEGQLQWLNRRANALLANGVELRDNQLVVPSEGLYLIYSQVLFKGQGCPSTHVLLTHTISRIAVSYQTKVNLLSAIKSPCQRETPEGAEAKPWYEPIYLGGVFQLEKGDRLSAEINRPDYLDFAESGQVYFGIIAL
# Procedure, shortened: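 Secreted TNF-alpha from compound-treated THP-1 cells (17 hrs, 37 C) was quantified with a homogeneous time-resolved fluorescence antibody assay.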
# [24] = qHTS assay for cell viability of HEK293 cells (AID 743288); conditions: ATP luminescence (CellTiter-Glo), 18 h; max response: hits give low values; further: on the % scale 0 is the no-effect control and ±100 the full control effect; nearly all actives have a fitted effect of over 50% in size
# Procedure, shortened: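 Parental HEK293 cells, 2,000 per well, preincubated at least 5 h at 37 C, then exposed to compounds in DMSO for 18 h at 37 C. Viability by CellTiter-Glo ATP luminescence after 30 min at room temperature.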
# Tags describe the fitted curve by direction and shape or compound fluorescence and quenching.
smiles,measurement,setting,value
O=C1OC(=O)c2c(Cl)c(Cl)c(Cl)c(Cl)c21,Potency,[1],inactive: > 92 µM
same,Potency,[2],inactive
same,Potency,[3],inactive
same,Potency,[4],inactive
same,Potency,[5],inactive
same,Potency,[6],inactive
same,Potency,[7],"inconclusive [activator, single point]"
same,"activity, negative = inhibition",[7],inconclusive: 6.66%
same,Potency,[8],"inconclusive [side channel, falling, full curve, poor fit]"
same,activation,[9],inconclusive: -5.62%
Nc1ccc(-c2ccc(N)c(O)c2)cc1O,Potency,[10],inconclusive [single point]
same,Potency,[11],"inconclusive [falling, single point]"
same,caspase-3 activation,[12],inconclusive: 1.65%
same,caspase-3 activation,[13],inconclusive: 55%
same,Potency,[14],inactive
same,Potency,[15],inactive
same,activation,[16],inconclusive: 52.2%
same,"activity change, negative = inhibition",[17],inconclusive: -62%
same,"activity change, negative = inhibition",[18],inconclusive: -27.4%
same,activation,[19],inconclusive: -1.39%
same,"activity, negative = inhibition",[7],inconclusive: -16.7%
same,activation,[8],inconclusive: -23.9%
same,activity change % (negative = inhibition),[20],inactive: -12.5%
same,activation,[21],inconclusive: 15.2%
same,"ratio change, negative = disruption",[22],inconclusive: 19.7%
same,activation (TNF-alpha secretion),[23],inconclusive: 1.08%
same,activation,[9],inconclusive: -19%
same,max response,[24],inactive: -18.5%
